Source: the supplement of paper PMC12645437, “Orthogonal IMiD-Degron Pairs Induce Selective Protein Degradation in Cells” (ACS Chemical Biology, 2025)
This is one part of the list.

Target: no compound (DMSO)
Test: log2 fold change of degron read counts, EGFP-low vs EGFP+ sorted cells; higher = lower degron-EGFP level without compound (poor expression or instability)
Settings: compound: DMSO control; 18 h
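Further: jurkat cells carrying a lentiviral library of mutant zinc finger degrons fused to EGFP plus mCherry, mCherry+ cells FACS sorted, degron abundance counted by next-generation sequencing.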

Sequence	log2 fold change of degron read counts
LDCPICGFHCTQKGNLLRHIKL	0.456
FKCDQCGAIFTQKGNLLRHIKL	-1.87
FDCEICGAPFTQKGNLLRHIKL	-1.19
FHCEICGRFFTQKGNLLRHIKL	-0.588
FTCEQCGAQFTQKGNLLRHIKL	-2.57
FNCPICGRVFTQKGNLLRHIKL	0.42
FICPVCGAVFTQKGNLLRHIKL	0.172
LECPICGFHCTQKGNLLRHIKL	0.149
FGCDVCGADFTQKGNLLRHIKL	-1.13
FRCDQCGAIFTQKGNLLRHIKL	-1.11
FICNQCGHMFTQKGNLLRHIKL	-0.217
LDCEICGFDCTQKGNLLRHIKL	-0.408
FRCNQCGRGFTQKGNLLRHIKL	-0.174
FHCNICGARFTQKGNLLRHIKL	-0.214
FFCEQCGAPFTQKGNLLRHIKL	-1.06
FFCEVCGAIFTQKGNLLRHIKL	0.0367
FCCEQCGARFTQKGNLLRHIKL	-1.76
FRCDQCGAGFTQKGNLLRHIKL	-1.37
FGCNQCGRCFTQKGNLLRHIKL	0.738
FICSVCGHIFTQKGNLLRHIKL	0.173
FECEICGAHFTQKGNLLRHIKL	-2.35
LMCEICGFPCTQKGNLLRHIKL	0.237
FICNVCGAHFTQKGNLLRHIKL	-0.377
FNCDICGAPFTQKGNLLRHIKL	0.105
FVCEQCGAWFTQKGNLLRHIKL	-0.44

Sequence	log2 fold change of degron read counts
FDCDICGAIFTQKGNLLRHIKL	0.217
FICDVCGACFTQKGNLLRHIKL	-1.09
FTCPICGASFTQKGNLLRHIKL	-0.244
FQCEICGATFTQKGNLLRHIKL	-0.398
FVCPICGRFFTQKGNLLRHIKL	-0.0445
FLCDQCGADFTQKGNLLRHIKL	-0.968
FYCNICGAMFTQKGNLLRHIKL	0.441
FGCNQCGRKFTQKGNLLRHIKL	-0.0368
FWCEICGAYFTQKGNLLRHIKL	0.539
FNCEICGRQFTQKGNLLRHIKL	-1.18
FCCEICGAYFTQKGNLLRHIKL	-1.4
FICPICGRPFTQKGNLLRHIKL	-0.573
FWCPICGAAFTQKGNLLRHIKL	0.711
FLCEICGHIFTQKGNLLRHIKL	-0.316
FDCSVCGHPFTQKGNLLRHIKL	0.319
FICPICGRVFTQKGNLLRHIKL	0.654
FFCNVCGAPFTQKGNLLRHIKL	0.596
FWCEVCGANFTQKGNLLRHIKL	-0.964
FWCPICGHLFTQKGNLLRHIKL	1.76
FECDQCGANFTQKGNLLRHIKL	-3.12
FKCDQCGAQFTQKGNLLRHIKL	-1.64
FGCEVCGAEFTQKGNLLRHIKL	-1.1
FRCNVCGAQFTQKGNLLRHIKL	-0.729
FCCEVCGAEFTQKGNLLRHIKL	-1.87
FLCNVCGAVFTQKGNLLRHIKL	0.0239
